# Screen size: about 360,000 compounds; about 6,000 (1.7%) were called active. Inconclusive means that the source gave no clear call. Such entries were picked first, then a sample of the others. Calls follow the shape of the dose curve; as a rule, active = well fitted cell-killing curve with a large enough effect; inconclusive = small, poorly fitted or top-dose-only effect, or effect the other way; inactive = flat fitted curve, though single readings scatter. No potency is given beside an inconclusive call; the fits are too rough.
# Assay: qHTS for induction of synthetic lethality in tumor cells producing 2HG: qHTS for the HT-1080-NT fibrosarcoma cell line;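 also: NT is the 2HG producing partner of a matched IDH1 knockdown line; nearly all actives have a fitted effect of over 55% in size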;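 as to activity, negative = less viability: 0% = DMSO-treated cells and -100% = media-only wells without cells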
# Conditions: HT-1080-NT fibrosarcoma viability, CellTiter-Glo ATP luminescence, 48 h; activity, negative = less viability: at 46.1 µM (top of the series) unless noted
# Procedure, shortened: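 Read-out is CellTiter-Glo luminescence after 10 minutes at room temperature, following 48 hours' compound treatment of HT-1080-NT cells (750 cells/well, RPMI, 5% FBS, 37 degrees C).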
# Potency is read from the fitted curve at half-maximal effect; tags tell the direction and shape of the fitted curve.
Compound,Potency,"activity, negative = less viability"
CCCC[C@@H]1Cc2[nH][nH]c(=O)c2[C@H](c2ccc(C(C)C)cc2)O1,inactive,–
Cc1ccc(-c2nnc(SCC(=O)Nc3ccc4c(c3)OCCO4)n2N)cc1,–,inconclusive: -31% [cytotoxic]
COc1ccccc1/C=C/CN1CCCC(CCC(=O)NCc2ccccc2F)C1 (centres undefined),"inconclusive [cytotoxic, single point]",–
CC1=CC(Cc2ccccc2)N(C)C(C(N)=O)C1 (centres undefined),"inconclusive [rising, single point]",–
CC(C)c1ccc(/C=C(\c2nc3ccccc3[nH]2)S(=O)(=O)c2ccccc2)cc1,active: 5.17 µM,–
CC(C)(C)NC(=O)C(c1cccs1)N(CC1CCCO1)C(=O)c1ccc(-c2ccccc2)[nH]1 (centres undefined),inactive,–
O=C(Nc1cc(Oc2ccc(Cl)cc2)cc([N+](=O)[O-])c1)c1ccco1,"inconclusive [cytotoxic, single point]",–
COc1ccc(OC(F)(F)F)cc1CC1(C)C(=O)Nc2ccc(S(=O)(=O)NC3CCCCC3)cc21 (centres undefined),"inconclusive [cytotoxic, single point]",–
Cc1cccc(NC(=S)NC(NC(=O)OCc2ccccc2)C(Cl)(Cl)Cl)c1 (centres undefined),"inconclusive [cytotoxic, single point]",–
CCOC(=O)c1c(Nc2ccccc2)sc(/C=C2\C=Nc3ccccc32)c1O,"inconclusive [cytotoxic, single point]",–
CC(C)(C)c1ccc(-n2ncc3c2CCCC3NC(=O)CCN2CCCC2=O)cc1 (centres undefined),"inconclusive [cytotoxic, single point]",–
COc1cc(OC)nc(Nc2nc(C(N)COCc3ccccc3)cs2)n1 (centres undefined),"inconclusive [cytotoxic, single point]",–
Cc1ccc(NC(=O)c2ccc(NCCCN3CCC(C)CC3)c([N+](=O)[O-])c2)c(C)c1,"inconclusive [cytotoxic, single point]",–
CSc1ccccc1OCc1cc(C(=O)N2CCc3[nH]cnc3C2c2ccccn2)no1 (centres undefined),inactive,–
CC1(C)C2([N+](=O)[O-])CN(CCO)CC1([N+](=O)[O-])CN(CCO)C2,inactive,–
Cc1cccc2c1NC(=O)/C2=C\C(=O)c1cccs1,active: 18.4 µM,–
C=C(C)CSc1nnc(CCCCCNC(=O)OC(C)(C)C)o1,"inconclusive [cytotoxic, single point]",–
COCCCNC(=S)Nc1cccc2ncccc12,"inconclusive [cytotoxic, single point]",–
COC(=O)Nc1nc2ccc(C(=O)c3cccs3)cc2[nH]1,"inconclusive [cytotoxic, full curve, poor fit]",–

# Source: PubChem BioAssay AID686970 (National Center for Advancing Translational Sciences (NCATS), 2013)
